In PubChem BioAssay AID1671194 (National Center for Advancing Translational Sciences (NCATS), 2021):
Where “and” joins values, the source holds several entries; their conditions need not be identical. Identical values can stand only once. In all, about 140,000 compounds went through this assay and about 240 (0.17%) were called active. Inconclusive results, whose numbers are uncertain, are shown with a selection of clear calls. Calls come from the whole dose curve; as a rule, active = well fitted inhibition curve with a large enough effect; inconclusive = small, poorly fitted or top-dose-only effect; inactive = no such curve, though single readings can be large or run the other way. Potencies of inconclusive entries are doubtful fits and often do not repeat.

assay: Primary qHTS assay for inhibitors of alpha-synuclein gene (SNCA) expression; conditions: HEK-293 SNCA-luciferase knock-in, luminescence, 24 h; series mostly up to 57.2 µM; note: nearly all actives have a fitted effect of over 45% in size
Excerpt: Assay Submitter (PI): Daniel R. Scoles Ph.D.
Department of Neurology, University of Utah, Salt Lake City, Utah
Accumulation of alpha-synuclein is a main underlying pathological feature of Parkinson's disease (PD) and alpha-synucleinopathies, for which lowering expression of the alpha-synuclein gene (SNCA) is a potential therapeutic avenue. Using a cell-based luciferase reporter of SNCA expression we performed a quantitative high throughput screen (qHTS) of 155,885 compounds in dose response. The screening assay was generated using genome editing to insert the luciferase gene downstream and in frame of the SNCA gene in HEK-293 cells (1). A viability counterscreen using GF-AFC was used to eliminate cytotoxic and false positive compounds. After in silico analysis (clustering, removal of frequent hitter nuisance chemotypes), inhibitor compounds from the primary screen were selected for follow up and re-tested at 11-doses in the SNCA-luc cells (luciferase and GF-AFC confirmation), and in CMV-luc expressing cell line to flag general transcriptional repressors.
Described herein are the results of the primary screen for SNCA inhibitors; decrease in luciferase signal (inhibition of the SNCA gene expression) is the desired output for this assay.
1. Dansithong, W., Paul, S., Scoles, D. R., Pulst, S. M., and Huynh, D. P. (2015) Generation of SNCA Cell Models Using Zinc Finger Nuclease (ZFN) Technology for Efficient High-Throughput Drug Screening. PLoS ONE 10, e0136930.
SEQUENCE No. (e.g., 1, 2, 3, etc.); […] (e.g., Cells, Incubation, Reagent, etc.); VALUE; DESCRIPTION
1; Cells; 4 uL; Dispense 1500 HEK-293-SNCA-luc cells/well into Greiner 1536-well white / solid bottom tissue culture treated plate. The plate was covered with metal lids with gas-exchange holes.
2; Incubate; 24 hours; Incubate at 37C, 5% CO2, 95% RH.
3; Compounds; 23 nL; Compounds and controls were transferred via a Kalypsys Pin Tool (Wako USA) equipped with a 1536-slotted pin array. The plate was covered with metal lids with gas-exchange holes.
4; Incubate; 24 hours; Incubate at 37C, 5% CO2, 95% RH.
5; Dispense; 1 uL; Dispense Gly-Phe-7-amino-4-trifluoromethylcoumarin (GF-AFC, prepared at 125 uM in PBS) was added. The plate was covered with metal lids with gas-exchange holes.
6; Incubate; 30 min; Incubate at 37C, 5% CO2.
7; Detector; Fluorescence; Measure fluorescence with ViewLux microplate reader (PerkinElmer) equipped with 405/10 excitation and 540/25 emission filters.
8; Dispense; 3 uL; Dispense ONE-Glo ([…]) lucifase detection reagent was added to each well. Plates were covered with metal lids with gas-exchange holes.
9; Incubate; 15 min; Incubate at room temperature.
10; Detector; Luminescence; Measure luminescence with ViewLux microplate reader (PerkinElmer) equipped with clear filters.
NOTES (numbers refer to sequence above)
1; HEK-293-SNCA-luc were cultured and suspended in phenol-red free DMEM (4.5 g/L glucose, 25 mM HEPES, cat #21063 (Thermo)).
3; Compounds were added to the assay plate in an 11-point intra plate dose response, 1:3 titration in DMSO with a final concentration range of […]. Vehicle-only plates, with DMSO being pin-transferred to every well, were inserted at the beginning of screening runs to confirm expected assay performance. Activity was normalized to wells containing medium only (-100% activity, full inhibition) and SNCA-luc cells treated with DMSO vehicle control (0% activity), contained on the same plate as test samples.
10; Signals were analyzed, and dose-response curves were fit using the Hill equation. Compounds in curve classes -1.1, -1.2, -2.1, -2.2 in the SNCA-luc assay were considered active. Compounds were eliminated from further consideration if also active (curve class -1.1, -1.2, -1.3, -1.4, -2.1, -2.2, -2.3, -2.4) in the GF-AFC cytotoxicity assay.
Potency is the fitted concentration of half-maximal effect; tags give direction and shape of the fitted curve.

SMILES	Potency
Cc1ccc(C(=O)N(CC2CCN(Cc3ccccc3F)CC2)CC2CCCO2)s1 (centres undefined)	inconclusive: 1.12 µM [inhibitor, full curve, poor fit]
CC(CNC(=O)c1nnc(Cc2cccc(F)c2)o1)c1ccccc1 (centres undefined)	inconclusive: 7.08 µM [inhibitor, single point]
CC1=C[C@@H](CNC(=O)CCC(=O)O)[C@H](C(C)C)C[C@H]1Cc1nc2ccncc2[nH]1	inactive
COc1ccc(CCNC(=O)c2ccc3c(c2)N=C(C)c2cc(C)ccc2S3)cc1OC	inconclusive: 25.1 µM [inhibitor, partial curve, poor fit]
COc1nc(-c2ccc(OC)c3ncccc23)ncc1F	inactive
O=C(NC1CC1)c1cc2n(n1)CCN(C(=O)c1ccc3n[nH]nc3c1)C2	inconclusive: 3.55 µM [inhibitor, full curve]
NC(=O)Cn1ccc2cc(OCC3CCN(C(=O)C4CC4)CC3)cnc21	inconclusive: 31.6 µM [inhibitor, single point]
O=C(C1CCN(c2nc3ncccc3o2)CC1)N1CCCC1	inactive
Cc1ncsc1C(=O)N1CC(COc2ccccc2)C2(C1)CN(c1ccccc1)C2 (centres undefined)	inactive
COc1cccc(NC(=O)N2CCc3nc4cc(-c5ccccc5Cl)[nH]n4c(=O)c3C2)c1	inconclusive: 20 µM [inhibitor, partial curve, poor fit]
CS(=O)(=O)N1CCc2cc(C(=O)Nc3ccc(Cl)c(C(F)(F)F)c3)ccc21	inconclusive: 31.6 µM [inhibitor, partial curve, poor fit]
O=C1NC[C@@H](CCC(=O)N2CCCC2)N2C[C@@H](NCc3ccc(F)cc3)C[C@@H]12	inconclusive: 3.16 µM [inhibitor, full curve, poor fit]
COc1ccc2c(c1)CCc1c-2n[nH]c1C(=O)N1CCc2nc3cc[nH]n3c(=O)c2C1	inconclusive: 25.1 µM [inhibitor, single point]
c1cncc(Nc2cc3c(cn2)CN(Cc2c[nH]c4ccccc24)CCN3)c1	inconclusive: 7.94 µM [inhibitor, single point]
Cc1cccn2c(CNC3CCC4(CCNCC4)CC3)cnc12	inactive
O=C(NCCc1ccc(F)cc1)C1CCN(c2nccc(Nc3ccccc3F)n2)CC1	inactive
Cc1cc(C(=O)NC(C)c2cnc(N3CCCCCCC3)nc2C)n[nH]1 (centres undefined)	inactive
COc1ccc(NC(=O)Cn2nnc(C(=O)NCc3ccco3)c2N)c(OC)c1	inconclusive: 39.8 µM [inhibitor, single point]
CCOc1cc(C(Nc2cc(C)ccn2)c2ccc3cccnc3c2O)ccc1OC (centres undefined)	inconclusive: 28.2 µM [inhibitor, single point]
Cc1noc(-c2ccc(C(C)(C)C)cc2)c1C(=O)NCc1ccc(Cl)cc1	inconclusive: 39.8 µM [inhibitor, single point]
O=C(Nc1ccc(Cl)cc1)NC1CCN(C(=O)c2ccc(-c3cccs3)cc2)CC1	inconclusive: 10 µM [inhibitor, partial curve, poor fit]
COc1ccc(OC)c(NC(=O)Cn2c(-c3cccc(Cl)c3)nc(C)c(CCO)c2=O)c1	inactive

SMILES	Potency
O=C(N[C@H]1CO[C@H]2[C@@H]1OC[C@@H]2Nc1nccc(-c2cccc(F)c2)n1)c1ccccc1	inconclusive: 4.47 µM [inhibitor, full curve, poor fit]
CN(C)c1ccc(C(=C2C=CC(=[N+](C)C)C=C2)c2ccc(N(C)C)cc2)cc1	inconclusive: 1.12 µM [inhibitor, full curve, poor fit] and inconclusive: 1.52 µM [inhibitor, full curve]
COc1cc(NC(=O)CSc2nc(-c3ccccc3)no2)cc(OC)c1	inconclusive: 39.8 µM [inhibitor, single point]
Cc1ccc2c(c1)c(=O)c1ccccc1n2CCCC(=O)Nc1ccc(Cl)c(Cl)c1	inconclusive: 7.08 µM [inhibitor, single point]
CC(C(=O)O)c1ccc2c(c1)CC(=O)c1ccccc1S2 (centres undefined)	inconclusive: 34.1 µM [inhibitor, partial curve, poor fit]
O=C(N[C@H]1CCN2C(=O)c3ccccc3NC(=O)[C@@H]2C1)C1CCCCC1	inactive
O=[S+]([O-])(CCC(F)(F)F)N1CCN(Cc2ccccc2-c2cccnc2)CC1	inactive
CCOC(=O)N1CCc2c(sc(NCc3cccs3)c2C(=O)Nc2cc(Cl)ccc2OC)C1	inconclusive: 2 µM [inhibitor, single point]
COc1cccc(-c2nc3cnccn3c2NCCC(=O)N2CCN(C(C)C)CC2)c1	inactive
O=C(Nc1cccc(C(F)(F)F)c1)c1cc2nc(-c3ccco3)cc(C(F)(F)Cl)n2n1	inconclusive: 39.8 µM [inhibitor, single point]
CC(C)Nc1ncnc2c1CN(C1CCCNC1)C(=O)CN2C (centres undefined)	inactive
Cc1nc2c(c(-c3ccc(Cl)cc3)n1)CCN(C(=O)c1cccc(Cl)c1)CC2	inconclusive: 12.6 µM [inhibitor, partial curve, poor fit]
OCC1CCCCN1CCNc1nccc(-c2cccnc2)n1 (centres undefined)	inactive
CC(=O)N1CCN(C(=O)c2cc(-c3cccnc3)nc3c2cnn3C)CC1	inconclusive: 11.2 µM [inhibitor, partial curve, poor fit]
O=S(=O)(N[C@H]1CO[C@H]2[C@@H]1OC[C@@H]2n1cc(CC2CCCCC2)nn1)c1cccs1	inactive
CCCCCn1c(NCc2ccccc2OC)nc2ccccc21	inconclusive: 39.8 µM [inhibitor, single point]
O=C(NCc1cccs1)C1CCCN(Cc2cccc(-c3ccsc3)c2)C1 (centres undefined)	inconclusive: 6.31 µM [inhibitor, partial curve, poor fit]
CCN(CC)S(=O)(=O)c1ccc2c(c1)c(=O)c(C(=O)NCc1ccc(Cl)cc1)cn2C	inconclusive: 0.708 µM [inhibitor, full curve]
COc1ccc(-c2noc([C@@H]3Cc4nc[nH]c4CN3C(=O)CSCC(=O)O)n2)cc1	inconclusive: 56.2 µM [inhibitor, single point]
Cc1c2cnn(-c3ccccc3)c(=O)c2c(C)n1CC(=O)NCc1ccccc1Br	inconclusive: 1.41 µM [inhibitor, partial curve, poor fit]
COc1ccc(Cn2cc(C(=O)c3ccc(OC)cc3)c(=O)c3cc4c(cc32)OCCO4)cc1	inconclusive: 39.8 µM [inhibitor, single point]
O=C(c1c[nH]c2cccnc12)N1CCOCC1	inconclusive: 11.2 µM [inhibitor, full curve, poor fit]

SMILES	Potency
CC(=O)N1CCC(C(=O)N2CCCC2c2nc(CCOCC3CCCC3)no2)CC1 (centres undefined)	inconclusive: 11.2 µM [inhibitor, partial curve, poor fit]
CCCC(=O)Nc1cc(-c2cccnc2)nn1-c1ccccc1	inactive
Oc1ccccc1-c1nc(/C=C/c2ccccc2Cl)no1	active: 4.47 µM
Cc1ccc(-n2c(=O)c3c4c(sc3n(Cc3ccccc3F)c2=O)CCC4)cc1C	active: 28.2 µM
CCc1ccc(-n2c(=O)c3c(C)c(C(=O)N(C)C)sc3n(Cc3cccc(C)c3)c2=O)cc1	inconclusive: 1.41 µM [inhibitor, partial curve, poor fit]
CCOc1ccc(CNC(=O)CCn2nc(C)c3c(C)n(-c4ccccc4)nc3c2=O)cc1	inconclusive: 1.26 µM [inhibitor, full curve]
O=C(c1ccc2c(c1)OCO2)N1CCc2nc(C3CC3)nc(-c3ccc(Cl)cc3)c2CC1	inactive
CCCc1nc2sc3c(N4CCCCC4)ncnc3c2c2c1CCCC2	inconclusive: 22.4 µM [inhibitor, single point]
Cc1ccc(-c2ncc3c(n2)OCCN(Cc2ccc(F)cc2F)C3=O)cc1	inactive
Cc1cc(=O)n2nc(N3CCC(C(=O)Nc4ccc(C(C)C)cc4)CC3)sc2n1	inconclusive: 12.6 µM [inhibitor, partial curve, poor fit]
COc1ccc(N2CCN(C(=O)COc3ccc(NC(C)=O)cn3)CC2)cc1	inconclusive: 4.47 µM [inhibitor, single point]
CCCSCCCNC(=O)C1CCN(C(=O)c2cc3sccc3n2C)CC1	inconclusive: 39.8 µM [inhibitor, single point]
c1ccc(CC2=NOC3(CCN(CC4CC4)CC3)C2)cc1	inconclusive: 56.2 µM [inhibitor, single point]
CCNC(=O)CC1C(=O)N(c2ccccc2)C(=O)N1Cc1ccc(F)cc1 (centres undefined)	inconclusive: 2.51 µM [inhibitor, partial curve, poor fit]
COc1ccc(-c2nc(C)nc3c2CCN(Cc2ccnn2C)CC3)cc1	inactive
Cc1cccc(NC(=O)Cn2c(=O)n(Cc3ccc(C(=O)NCc4ccc5c(c4)OCO5)cc3)c(=O)c3ccccc32)c1	inactive
OCCO[C@@H]1COCC[C@H]1NC1CCN(c2ccc3c(c2)CCC3)CC1	inconclusive: 7.94 µM [inhibitor, full curve, poor fit]
CCOc1ccccc1NC(=O)NC1CCN(C(=O)N2CC3CC(C2)[C@H]2CCCC(=O)N2C3)CC1 (some centres undefined)	inconclusive: 39.8 µM [inhibitor, single point]
Cn1cc(S(=O)(=O)c2ccccc2)c(=O)c2cc(F)c(N3CCOCC3)cc21	inconclusive: 39.8 µM [inhibitor, single point]
CCCCOc1ccc(C2c3c(-c4ccccc4O)n[nH]c3C(=O)N2Cc2ccncc2)cc1OC (centres undefined)	inconclusive: 2.51 µM [inhibitor, full curve, poor fit]
